Measurements taken from PubChem BioAssay AID652104 (National Center for Advancing Translational Sciences (NCATS), 2013).
Hit rate of the full screen: of about 410,000 compounds, about 7,200 (1.8%) were called active. The inconclusive results got no clear call from the source; some entries with a clear call stand among them for comparison. Calls follow the shape of the dose curve; as a rule, active = well fitted activation curve with a large enough effect; inconclusive = small, poorly fitted or top-dose-only effect, or another doubt; inactive = no such curve, though single readings can be large or run the other way. Potencies beside an inconclusive call are fits to weak or partial responses and may not hold up.

Assay: qHTS of TDP-43 Inhibitors; also: nearly all actives have a fitted effect of over 50% in size; as to growth rescue (activation): % of control where 0% means no effect
Settings: TDP-43 expressing yeast growth rescue, BacTiter-Glo, 24 h; growth rescue (activation): at 46.1 µM (top of the series) unless noted
Method in brief: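 Yeast expressing TDP-43 (pregrown in raffinose, seeded at OD600=0.02 in galactose medium) exposed to compounds 24 hr at 30 deg C. Growth read by BacTiter-Glo luminescence; rescue of toxicity appears as increased signal.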
Potency is read from the fitted curve at half-maximal effect; tags tell the direction and shape of the fitted curve.

Potency, active:
O=C1N(CCCl)c2ccc(Br)cc2C12OCCO2 10 µM, C#CCOc1c(Cl)cc(/C=C2/C(=O)ON=C2C)cc1OCC 17.8 µM, Cc1ccccc1Nc1nc(N)nc(CSc2nc3ccccc3s2)n1 20 µM, Cn1ccc2c(-c3ccc(CO)cc3)cc3c(c21)C1CCC3C1 (centres undefined) 35.5 µM, Oc1cccc(C=NN=C2c3ccccc3-c3ccccc32)c1 28.2 µM, O=[N+]([O-])c1nn(-c2ccc3c(c2)OCCO3)n(O)c1=NC1CCCCC1 7.94 µM, COc1ccc(Oc2cnn(-c3ccccc3)c(=O)c2Br)cc1 12.6 µM, N#Cc1ccc(NC(=S)NC(=O)C2CC2)cc1 12.6 µM, CC1CCN(c2oc(-c3ccccc3F)nc2C#N)CC1 15.8 µM, COCCCNc1ccn2nc(-c3ccc(Cl)cc3)cc2n1 11.2 µM, C/C(=N\Nc1nc2c(s1)CCCC2)c1ccccc1 20 µM, Cc1cc(C)cc(Nc2ncc3c(n2)CC(c2ccco2)CC3=O)c1 (centres undefined) 15.8 µM, COc1cccc(N2CCN(C(=O)c3cc4cc(Cl)ccc4[nH]3)CC2)c1 12.6 µM

Potency, inconclusive:
O=C(Nc1ccc(F)cc1)c1nc(S(=O)(=O)Cc2ccccc2)ncc1Cl 2.82 µM [activator, single point], CNc1nnc(CSc2nc3ccccc3s2)s1 12.6 µM [activator, partial curve], Cc1nc(C(F)(F)F)c(C(=O)NC(=O)Nc2ccccc2)s1 11.2 µM [activator, single point], COc1ccccc1-c1cc(C(F)(F)F)nc(S(=O)(=O)CCCC(=O)Nc2cc(Br)ccc2O)n1 0.794 µM [activator, full curve, poor fit], Cc1ccc(C(=O)Nc2ccc(SC(F)F)cc2)s1 1.41 µM [activator, full curve, poor fit], CCSCCc1nnc(NC(=O)Nc2cccc(C(F)(F)F)c2)s1 1 µM [activator, full curve, poor fit], CCOc1ccc(-n2cccc2C=O)cc1 7.94 µM [activator, partial curve, poor fit], c1ccc(C2=NNC(c3ccccn3)=NN2)nc1 35.5 µM [activator, single point], Cc1csc(SCC(=O)c2cc(C)n(Cc3cccs3)c2C)n1 35.5 µM [activator, partial curve], CC(C)OCCCNC(=O)NC(=O)c1ccc(Cl)cc1 15.8 µM [activator, partial curve], CCOc1ccc(Nc2nc3ccccc3c3nnc(CC)n23)cc1 0.501 µM [activator, full curve], CCCCNC(=O)C1C(c2ccccc2)=Nc2ccccc2N1C(=O)c1ccc(C)cc1 (centres undefined) 7.08 µM [activator, full curve, poor fit], COC(=O)c1c(C(=O)OC)c(-c2ccc(Cl)c(Cl)c2)n2c1CCC2 12.6 µM [activator, single point], O=C(CSCc1ccc(F)cc1)N1CCN(c2ccccc2)CC1 35.5 µM [activator, partial curve], O=C1C(Cl)=C(NC(=O)c2ccccc2)C(=O)C(Cl)=C1NC(=O)c1ccccc1 35.5 µM [activator, partial curve, poor fit], Cc1ccc(F)cc1NCC(=O)Nc1ccc(Br)cc1 11.2 µM [activator, partial curve], O=C(OCc1cc(=O)n2ccsc2n1)c1ccccc1O 35.5 µM [activator, single point], O=C(Nc1ccccc1)c1nn(-c2cccc(C(F)(F)F)c2)ccc1=O 11.2 µM [activator, partial curve], CCOc1ccccc1NC(=O)COc1cccc2c(=O)n(CCOC)ccc12 1.12 µM [activator, full curve], O=C(Nc1ccc2c(c1)CCC2)c1cccc(OC(F)F)c1 11.2 µM [activator, partial curve], COCCn1c(SCCCc2ccccc2)nc2c1c(=O)[nH]c(=O)n2C 35.5 µM [activator, partial curve], Cc1cc(Br)c(Cl)cc1NC(=O)CN1C(=O)C2C3CC(c4ccccc4)C(C3)C2C1=O (centres undefined) 35.5 µM [activator, single point], Nc1c(NCCc2ccccc2)c2ccccc2oc1=O 11.2 µM [activator, single point], Cc1ccc(C2(C)CC(C)(C)N(C(=O)CSc3nnc(C)s3)c3ccccc32)cc1 (centres undefined) 35.5 µM [activator, single point], O=C(Nc1ccc2oc(-c3ccc4ccccc4c3)nc2c1)c1cc(Br)ccc1Cl 2.24 µM [activator, full curve, poor fit], COc1ccc(N2CCN(C(=O)CN(Cc3ccc(Cl)cc3)S(C)(=O)=O)CC2)cc1 17.8 µM [activator, single point], Cc1ccc(Cl)cc1N1CCN(C(=O)CCSCc2ccccc2F)CC1 20 µM [activator, partial curve], Cc1cccc(OCCCC(=O)NNC(=O)c2cccc(N(C)C)c2)c1 3.55 µM [activator, partial curve], COc1ccccc1-c1nc(C#N)c(N2CCN(c3ccccc3)CC2)o1 15.8 µM [activator, single point], O=C(CCCc1nc(-c2ccco2)no1)Nc1ccccc1[N+](=O)[O-] 11.2 µM [activator, partial curve], CC(=O)Nc1c(C(=O)Nc2cccc(C)c2)nnn1-c1ccc(C)cc1 8.91 µM [activator, full curve, poor fit], COc1ccc(N(C)S(=O)(=O)c2cccc(C(=O)OCC(=O)N3CC(C)CC(C)C3)c2)cc1 (centres undefined) 12.6 µM [activator, single point], COc1ccc(OC)c(C(=O)NC(CC(N)=O)c2ccc(NCC3CC3)c([N+](=O)[O-])c2)c1 (centres undefined) 10 µM [activator, partial curve], COc1ccc(NC(=O)c2cc(-c3cc(Cl)ccc3C)n[nH]2)cn1 35.5 µM [activator, single point], CCOC(=O)c1sc2nc(C)nc(N3CCN(S(=O)(=O)c4ccccc4)CC3)c2c1C 35.5 µM [activator, single point], Cc1sc(N)c(C(=O)c2ccccc2Cl)c1C 31.6 µM [activator, single point], CCOC(=O)c1c(C)[nH]c(N=Nc2cccc(OC)c2)c1C 35.5 µM [activator, single point], COc1ccc(C(=O)Nc2nc3ccc(OC)cc3s2)cc1 11.2 µM [activator, partial curve], O=C(CSCc1cnn(-c2ccccc2)c1-n1cccc1)NCc1ccccc1F 25.1 µM [activator, single point], COc1cccc(-c2csc(N3CCN(C(=S)Nc4ccccc4C)CC3)n2)c1 20 µM [activator, partial curve], CCCn1c(N2CCN(CC(=O)c3c(C)n(C)c4ccc(OC)cc34)CC2)nc2c1c(=O)[nH]c(=O)n2C 3.16 µM [activator, single point], COc1ccc2oc3ccc(OC)cc3c(=O)c2c1 2.82 µM [activator, full curve], COc1ccc([C@H]2CC(=O)C=C(c3cc(C)ccc3OC)C2)cc1 12.6 µM [activator, partial curve], N#CC1=C(Nc2ccccc2Cl)SC(c2ccncc2)NC1=O (centres undefined) 0.562 µM [activator, full curve, poor fit]

Growth rescue (activation), inconclusive:
Oc1ccc(N=Nc2ccccc2)o1 -81.4% [activator], COc1cc(C(=O)ON=C2C3CC4CC(C3)CC2C4)cc(OC)c1OC -91.4% [activator]

Growth rescue (activation), inactive:
COc1cccc(NC(=O)Cn2c(=O)n(-c3cccc(OC)c3)c(=O)c3c4c(sc32)CCCC4)c1 20.6%, Cc1cc(C)c(Cn2c(=O)n(CCCCCC(=O)NCc3ccc4c(c3)OCO4)c(=O)c3sccc32)c(C)c1 6.59%, COc1ccc([N+](=O)[O-])cc1NC(=O)CSc1ncccn1 6.64%, Cc1ccc(-n2nc(C(=O)N3CCN(c4ccccc4)CC3)c(=O)n(C)c2=O)cc1 14.2% [at 9.22 µM], C[C@]12CC[C@@H]3c4ccc(O)cc4CC[C@H]3[C@@H]1C[C@@H](O)[C@@H]2O 0%, COc1cccc(CC(=O)NCc2ccc3c(c2)CCN3C(C)=O)c1 19.9%, CCC1CCc2sc(C(=O)NNC(=O)c3ccncc3)cc2C1 (centres undefined) 17.1%, O=C(NC(=S)NNC(=O)c1cnccn1)c1ccc(F)cc1 -6.96%, COc1cccc(N2CCN(C(=O)c3ccc(CS(=O)c4cccc(Cl)c4)o3)CC2)c1 (centres undefined) 25.9%, O=C(Nc1ccc2oc(-c3cccnc3)nc2c1)c1ccc(-c2cccc(OC(F)(F)F)c2)o1 2.35%
